{"source": "the supplement of paper PMC8728848", "test_in_all_cases": "glycan array binding signal (z-score within array); higher = stronger binding", "conditions_in_all_cases": "glycan notation: IUPAC condensed, linker removed", "key": {"[1]": {"target": "Neu5Ac(a2-3)Gal(b1-4)GlcNAc(b1-6)[Neu5Ac(a2-3)Gal(b1-3)]GalNAc", "how_it_was_run": "(§1)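 Glycan array data were curated from 3228 arrays in the Consortium for Functional Glycomics database and kept only where the protein sequence was available. Glycan names were converted to IUPAC-condensed notation, and columns mapping to the same glycan were averaged. The binding signal is a within-array Z-score, averaged across arrays of the same protein sequence at different concentrations or buffers and across linkers. Negative Z-scores can be read as non-binding.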"}, "[2]": {"target": "Neu5Ac(a2-3)Gal(b1-4)GlcNAc6S", "how_it_was_run": "as §1"}, "[3]": {"target": "Neu5Ac(a2-3)Gal(b1-4)[Fuc(a1-3)]GlcNAc", "how_it_was_run": "as §1"}, "[4]": {"target": "Neu5Ac(a2-3)Gal(b1-4)[Fuc(a1-3)]GlcNAc(b1-2)Man", "how_it_was_run": "as §1"}, "[5]": {"target": "Neu5Ac(a2-3)Gal(b1-4)[Fuc(a1-3)]GlcNAc(b1-3)Gal", "how_it_was_run": "as §1"}, "[6]": {"target": "Neu5Ac(a2-3)Gal(b1-4)[Fuc(a1-3)]GlcNAc(b1-3)Gal(b1-4)GlcNAc", "how_it_was_run": "as §1"}, "[7]": {"target": "Neu5Ac(a2-3)Gal(b1-4)[Fuc(a1-3)]GlcNAc(b1-3)Gal(b1-4)[Fuc(a1-3)]GlcNAc(b1-3)Gal(b1-4)[Fuc(a1-3)]GlcNAc", "how_it_was_run": "as §1"}, "[8]": {"target": "Neu5Ac(a2-3)Gal(b1-4)[Fuc(a1-3)]GlcNAc(b1-3)GalNAc", "how_it_was_run": "as §1"}, "[9]": {"target": "Neu5Ac(a2-3)Gal(b1-4)[Fuc(a1-3)]GlcNAc(b1-6)[Gal(b1-3)]GalNAc", "how_it_was_run": "as §1"}, "[10]": {"target": "Neu5Ac(a2-3)Gal(b1-4)[Fuc(a1-3)]GlcNAc(b1-6)[Neu5Ac(a2-3)Gal(b1-3)]GalNAc", "how_it_was_run": "as §1"}, "[11]": {"target": "Neu5Ac(a2-3)Gal(b1-4)[Fuc(a1-3)]GlcNAc6S", "how_it_was_run": "as §1"}, "[12]": {"target": "Neu5Ac(a2-3)Gal6S(b1-4)GlcNAc", "how_it_was_run": "as §1"}, "[13]": {"target": "Neu5Ac(a2-3)Gal6S(b1-4)[Fuc(a1-3)]GlcNAc", "how_it_was_run": "as §1"}, "[14]": {"target": "Neu5Ac(a2-3)GalNAc", "how_it_was_run": "as §1"}, "[15]": {"target": "Neu5Ac(a2-3)GalNAc(b1-4)GlcNAc", "how_it_was_run": "as §1"}, "[16]": {"target": "Neu5Ac(a2-3)[GalNAc(b1-4)]Gal(b1-4)Glc", "how_it_was_run": "as §1"}, "[17]": {"target": "Neu5Ac(a2-3)[GalNAc(b1-4)]Gal(b1-4)GlcNAc", "how_it_was_run": "as §1"}, "[18]": {"target": "Neu5Ac(a2-3)[GalNAc(b1-4)]Gal(b1-4)GlcNAc(b1-3)GalNAc", "how_it_was_run": "as §1"}, "[19]": {"target": "Neu5Ac(a2-3)[Neu5Ac(a2-6)]GalNAc", "how_it_was_run": "as §1"}, "[20]": {"target": "Neu5Ac(a2-6)Gal", "how_it_was_run": "as §1"}, "[21]": {"target": "Neu5Ac(a2-6)Gal(b1-3)GlcNAc(b1-3)[Gal(b1-4)GlcNAc(b1-6)]Gal(b1-4)Glc", "how_it_was_run": "as §1"}, "[22]": {"target": "Neu5Ac(a2-6)Gal(b1-4)Glc", "how_it_was_run": "as §1"}, "[23]": {"target": "Neu5Ac(a2-6)Gal(b1-4)GlcNAc", "how_it_was_run": "as §1"}, "[24]": {"target": "Neu5Ac(a2-6)Gal(b1-4)GlcNAc(b1-2)Man", "how_it_was_run": "as §1"}, "[25]": {"target": "Neu5Ac(a2-6)Gal(b1-4)GlcNAc(b1-2)Man(a1-3)Man(b1-4)GlcNAc(b1-4)GlcNAc", "how_it_was_run": "as §1"}, "[26]": {"target": "Neu5Ac(a2-6)Gal(b1-4)GlcNAc(b1-2)Man(a1-3)[Gal(b1-4)GlcNAc(b1-2)Man(a1-6)]Man(b1-4)GlcNAc(b1-4)GlcNAc", "how_it_was_run": "as §1"}, "[27]": {"target": "Neu5Ac(a2-6)Gal(b1-4)GlcNAc(b1-2)Man(a1-3)[GlcNAc(b1-2)Man(a1-6)]Man(b1-4)GlcNAc(b1-4)GlcNAc", "how_it_was_run": "as §1"}, "[28]": {"target": "Neu5Ac(a2-6)Gal(b1-4)GlcNAc(b1-2)Man(a1-3)[GlcNAc(b1-2)Man(b1-4)GlcNAc(b1-2)Man(a1-6)]Man(b1-4)GlcNAc(b1-4)GlcNAc", "how_it_was_run": "as §1"}, "[29]": {"target": "Neu5Ac(a2-6)Gal(b1-4)GlcNAc(b1-2)Man(a1-3)[GlcNAc(b1-4)][Neu5Ac(a2-6)Gal(b1-4)GlcNAc(b1-2)Man(a1-6)]Man(b1-4)GlcNAc(b1-4)GlcNAc", "how_it_was_run": "as §1"}, "[30]": {"target": "Neu5Ac(a2-6)Gal(b1-4)GlcNAc(b1-2)Man(a1-3)[Man(a1-6)]Man(b1-4)GlcNAc(b1-4)GlcNAc", "how_it_was_run": "as §1"}}, "note": "This is one part of the list.", "data": [{"binder": "HPA (Helix pomatia), Q575S3 (protein) MWAHLTGLLLICALSLSAAQRAQTGEIDCGSDSSWPKDPSDNPNRDNTREIVKHVTFSPQFCREPKVILSVTTLDAEHTKNLRYEARLKSVSPSGLSASCYSWHDGTIYRMKLSWLAVED", "values": [{"measurement": "glycan array binding signal (z-score)", "setting": "[1]", "result": -0.259}, {"measurement": "glycan array binding signal (z-score)", "setting": "[2]", "result": -0.259}, {"measurement": "glycan array binding signal (z-score)", "setting": "[3]", "result": -0.268}, {"measurement": "glycan array binding signal (z-score)", "setting": "[4]", "result": -0.253}, {"measurement": "glycan array binding signal (z-score)", "setting": "[5]", "result": -0.27}, {"measurement": "glycan array binding signal (z-score)", "setting": "[6]", "result": -0.253}, {"measurement": "glycan array binding signal (z-score)", "setting": "[7]", "result": -0.257}, {"measurement": "glycan array binding signal (z-score)", "setting": "[8]", "result": -0.211}, {"measurement": "glycan array binding signal (z-score)", "setting": "[9]", "result": -0.245}, {"measurement": "glycan array binding signal (z-score)", "setting": "[10]", "result": -0.243}, {"measurement": "glycan array binding signal (z-score)", "setting": "[11]", "result": -0.26}, {"measurement": "glycan array binding signal (z-score)", "setting": "[12]", "result": -0.273}, {"measurement": "glycan array binding signal (z-score)", "setting": "[13]", "result": -0.267}, {"measurement": "glycan array binding signal (z-score)", "setting": "[14]", "result": -0.264}, {"measurement": "glycan array binding signal (z-score)", "setting": "[15]", "result": -0.268}, {"measurement": "glycan array binding signal (z-score)", "setting": "[16]", "result": 0.07}, {"measurement": "glycan array binding signal (z-score)", "setting": "[17]", "result": -0.104}, {"measurement": "glycan array binding signal (z-score)", "setting": "[18]", "result": -0.2}, {"measurement": "glycan array binding signal (z-score)", "setting": "[19]", "result": -0.263}, {"measurement": "glycan array binding signal (z-score)", "setting": "[20]", "result": -0.258}, {"measurement": "glycan array binding signal (z-score)", "setting": "[21]", "result": -0.25}, {"measurement": "glycan array binding signal (z-score)", "setting": "[22]", "result": -0.262}, {"measurement": "glycan array binding signal (z-score)", "setting": "[23]", "result": -0.262}, {"measurement": "glycan array binding signal (z-score)", "setting": "[24]", "result": -0.251}, {"measurement": "glycan array binding signal (z-score)", "setting": "[25]", "result": -0.265}, {"measurement": "glycan array binding signal (z-score)", "setting": "[26]", "result": -0.261}, {"measurement": "glycan array binding signal (z-score)", "setting": "[27]", "result": -0.251}, {"measurement": "glycan array binding signal (z-score)", "setting": "[28]", "result": -0.277}, {"measurement": "glycan array binding signal (z-score)", "setting": "[29]", "result": -0.263}, {"measurement": "glycan array binding signal (z-score)", "setting": "[30]", "result": -0.27}]}]}
